Laboratory results reported in PubChem BioAssay (Tox21).
“And” between values parts separate entries of the source, which are not always exact repeats. Equal values may be shown once. Inconclusive results, whose numbers are uncertain, are shown with a selection of clear calls. Potencies beside an inconclusive call are fits to weak or partial responses and may not hold up. More than one record can exist for a structure, and the calls need not agree. The source made the active and inactive calls. Calls follow the shape of the dose curve; as a rule, active = well fitted cell-killing curve with a large enough effect in the repeat runs; inconclusive = weak or mixed curves; inactive = no such curve, though single readings can be large or run the other way.

Assay: qHTS assay to identify small molecule antagonists of the peroxisome proliferator-activated receptor delta (PPARd) signaling pathway - cell viability counter screen (AID 743213); also: nearly all actives have a fitted effect of over 50% in size
Conditions: PPARd-bla HEK293H viability, CellTiter-Glo luminescence, 17 h; viability change, negative = cytotoxic: at 62 µM (top of the series) unless noted
Source text: U.S. Tox21 Program National Center for Advancing Translational Sciences [NCATS] NIH Chemical Genomics Center [NCGC] U.S. Environmental Protection Agency [EPA] National Institutes of Environmental Health Sciences [NIEHS] National Toxicology Program [NTP] U.S. Food and Drug Administration [FDA] Tox21 Assay Overview: The peroxisome proliferator-activated receptors (PPARs) are lipid-activated transcription factors of the nuclear receptor superfamily with three distinct subtypes namely PPAR alpha, PPAR delta (PPARd) and PPAR gamma. All these subtypes heterodimerizes with Retinoid X receptor (RXR) and have different physiological functions. […] To identify the compounds that inhibit PPAR-delta signaling, GeneBLAzer PPAR delta UAS-bla HEK293H cell line (Invitrogen, Carlsbad, CA, USA) containing a beta-lactamase reporter gene under the control of an Upstream Activator Sequence (UAS) was used to screen the Tox21 compound library. The cytotoxicity of the Tox21 compound library against the PPARd-bla cell line was tested in parallel by measuring the cell viability using CellTiter-Glo assay (Promega, Madison, WI) in the same wells.
Tox21 Assay Protocol Summary: PPARd-bla cells were dispensed at 3000 cells/5uL/well in 1536-well black wall/clear bottom plates using a Multidrop Combi (Thermo Fisher Scientific, Waltham, MA) dispenser. After the assay plates were incubated at 37 C and 5% CO2 for 5 h, 23 nL of compounds dissolved in DMSO, positive controls or DMSO only was transferred to the assay plate by a Pintool station (Kalypsys, San Diego, CA), followed by addition of 1ul L165041 (300 nM, final concentration in the wells). The assay plates were incubated at 37 C for 17 h, and then 1 uL of LiveBLAzerTM B/G FRET substrate was added using a Bioraptr Flying Reagent Dispenser (FRD) workstation (Beckman Coulter, Indianapolis, IN, USA). The assay plates were incubated at room temperature for 2 h and fluorescence intensity was measured by an Envision plate reader (PerkinElmer, Shelton, CT). For cell viability readout that measures cytotoxicity, 3 ul/well of CellTiter-Glo reagent was added into the assay plates using a Bioraptr FRD. After 30 min incubation at room temperature, the luminescence intensity in the plates was measured using a ViewLux plate reader (PerkinElmer).
% is scaled to controls: 0 for no effect and ±100 for the full control effect; potency is read from the fitted curve at half-maximal effect; tags tell the direction and shape of the fitted curve.

Row | Compound | viability change, negative = cytotoxic | Potency
1 | CCOC(=O)CC(=O)CCl | inactive: 1.43% | –
2 | O=C(Nc1ccccc1-c1ccc(Cl)cc1)c1cccnc1Cl | – | inconclusive: 76.9 µM [cytotoxic, single point]
3 | CCCOCC(=Nc1ccc(Cl)cc1C(F)(F)F)n1ccnc1 | – | active: 21.9 µM
4 | CCOC(=O)C(C)OC(=O)c1cc(Oc2ccc(C(F)(F)F)cc2Cl)ccc1[N+](=O)[O-] (stereo not given) | – | inconclusive: 2.19 µM [cytotoxic, single point]
5 | CCCCCCCCCCCCCCCC[N+](C)(C)C | – | active: 21.1 µM and active: 3.89 µM and inconclusive: 33.5 µM [cytotoxic, single point]
6 | Nc1ccc([As](=O)(O)O)cc1 | – | inactive
7 | N#Cc1cccc(C#N)c1 | – | inconclusive: 11 µM [cytotoxic, full curve, poor fit]
8 | COP(=O)(OC)OC(Br)C(Cl)(Cl)Br (stereo not given) | – | inconclusive: 39 µM [cytotoxic, partial curve, poor fit] and inconclusive: 12.3 µM [cytotoxic, single point]
9 | CCC(=O)O[C@H]1CC[C@H]2[C@@H]3CCC4=CC(=O)CC[C@]4(C)[C@H]3CC[C@]12C | – | inconclusive: 54.9 µM [cytotoxic, single point]
10 | NC(=S)c1c(Cl)cccc1Cl | inactive: -7.37% | –
11 | COc1ccc(C(c2ccc(OC)cc2)C(Cl)(Cl)Cl)cc1 | – | inconclusive: 0.0077 µM [cytotoxic, full curve, poor fit]
12 | CCC(C)c1cc([N+](=O)[O-])cc([N+](=O)[O-])c1OC(=O)C=C(C)C (stereo not given) | – | inconclusive: 61.6 µM [cytotoxic, partial curve, poor fit]
13 | Cc1cc(-c2ccc(N)c(C)c2)ccc1N | inconclusive: -31.8% [cytotoxic] [at 80.4 µM] | inconclusive: 24.5 µM [cytotoxic, partial curve]
14 | Oc1cc(Cl)ccc1Oc1ccc(Cl)cc1Cl | – | active: 28 µM
15 | Clc1ccc(-c2ccc(Cl)c(Cl)c2Cl)c(Cl)c1Cl | inactive: -6.74% | –
16 | [CH3][Hg][Cl] | – | inconclusive: 61.5 µM [cytotoxic, single point]
17 | Nc1nc(N)nc(NC2CC2)n1 | – | inconclusive: 54.9 µM [cytotoxic, single point]
18 | O=[N+]([O-])c1ccc(Nc2ccccc2)cc1 | – | inconclusive: 30.9 µM [cytotoxic, partial curve, poor fit]
19 | CC(C)C1CCC(Cc2ccc(Cl)cc2)C1(O)Cn1cncn1 (stereo not given) | – | inconclusive: 54.4 µM [cytotoxic, single point]
20 | C[C@@H]1O[C@@H](O[C@H]2C[C@@H](O)[C@]3(CO)[C@H]4[C@H](O)C[C@]5(C)[C@@H](C6=CC(=O)OC6)CC[C@]5(O)[C@@H]4CC[C@]3(O)C2)[C@H](O)[C@H](O)[C@H]1O | – | active: 16.5 nM and active: 133 nM

Row | Compound | viability change, negative = cytotoxic | Potency
21 | N#Cc1sc2c(=O)c3ccccc3c(=O)c=2sc1C#N | – | active: 12.3 µM
22 | CCCN(CCC)c1c([N+](=O)[O-])cc(C(F)(F)F)cc1[N+](=O)[O-] | – | inactive and inconclusive: 6.2 nM [cytotoxic, full curve, poor fit]
23 | c1ccc(OCC2CO2)cc1 (stereo not given) | – | inconclusive: 55.1 µM [cytotoxic, single point]
24 | CC(C)CC(C)Nc1ccc(Nc2ccccc2)cc1 (stereo not given) | – | active: 38.3 µM
25 | O=C/C(Cl)=C(/Cl)C(=O)O | – | inactive
26 | COC12CC[C@@]3(C[C@@H]1C(C)(O)C(C)(C)C)[C@H]1Cc4ccc(O)c5c4[C@@]3(CCN1CC1CC1)[C@H]2O5 (stereo not given in full) | – | inconclusive: 68.1 µM [cytotoxic, single point]
27 | CC(C)(C)c1ccc(OP(=O)(Oc2ccccc2)Oc2ccccc2)cc1 | – | inconclusive: 15.6 µM [cytotoxic, partial curve]
28 | O=C1C2(Cl)C3(Cl)C4(Cl)C(Cl)(Cl)C5(Cl)C3(Cl)C1(Cl)C5(Cl)C24Cl (stereo not given) | – | active: 54 µM and inconclusive: 52.6 µM [cytotoxic, single point]
29 | Cc1cc(C(C)(C)c2cc(C)c(O)c(C)c2)cc(C)c1O | – | active: 42.2 µM
30 | CC1(C)CN=C(NN=C(/C=C/c2ccc(C(F)(F)F)cc2)/C=C/c2ccc(C(F)(F)F)cc2)NC1 | – | active: 6.92 µM
31 | O=C(N[C@H]1CN2CCC1CC2)c1cc2ccoc2cn1 | inactive: -17.7% | –
32 | O=C(O)c1cc[c]([Hg][Cl])cc1 | – | inconclusive: 54.9 µM [cytotoxic, single point]
33 | O=C1c2ccccc2C(=O)N1SC(Cl)(Cl)Cl | – | active: 21.6 µM and active: 5.49 µM
34 | C[C@]12Cc3cn[nH]c3C[C@@H]1CC[C@@H]1[C@@H]2CC[C@@]2(C)[C@H]1CC[C@]2(C)O | – | active: 29.8 µM
35 | CCc1nn(C)c(C(=O)NCc2ccc(C(C)(C)C)cc2)c1Cl | – | active: 43.6 µM
36 | CN(C)S(=O)(=O)N(SC(F)(Cl)Cl)c1ccccc1 | – | active: 27.5 µM
37 | O=S1(=O)OC(c2cc(Br)c(O)c(Br)c2)(c2cc(Br)c(O)c(Br)c2)c2ccccc21 | – | inconclusive: 44.9 µM [cytotoxic, single point]
38 | CCC[CH2][Sn]([Cl])([CH2]CCC)[CH2]CCC | – | active: 778 nM and active: 1.95 µM
39 | [Cl][Hg][c]1ccccc1 | – | active: 2.19 µM
